# B1: FGFR3-IIIc-Fc fusion protein (Fc fusion)
# chain: ESLGTEQRVVGRAAEVPGPEPGQQEQLVFGSGDAVELSCPPPGGGPMGPTVWVKDGTGLVPSERVLVGPQRLQVLNASHEDSGAYSCRQRLTQRVLCHFSVRVTDAPSSGDDEDGEDEAEDTGVDTGAPYWTRPERMDKKLLAVPAANTVRFRCPAAGNPTPSISWLKNGREFRGEHRIGGIKLRHQQWSLVMESVVPSDRGNYTCVVENKFGSIRQTYTLDVLERSPHRPILQAGLPANQTAVLGSDVEFHCKVYSDAQPHIQWLKHVEVNGSKVGPDGTPYVTVLKTAGANTTDKELEVLSLHNVTFEDAGEYTCLAGNSIGFSHHSAWLVVLPAEEELVEADEAGSVYAGGS[in this place human IgG1 Fc with changes]
# notes: also called HG1021603
# B2: FGFR4-Fc fusion protein (Fc fusion)
# chain: not shown
# notes: also called parental FGFR4-Fc; HG1020185
# B3: R1Mut4 (Fc fusion)
# chain: RPSPTLPEQAQPWGAPVEVESFLVHPGDLLQLRCRLRDDVQSINWLRDGVQLAESNRTRITGEEVEVQDSVPADSGLYACVTSSPSGSDTTYFSVNVSDALPSSEDDDDDDDSSSEEKETDNTKPNPVAPYWTSPEKMEKKLHAVPAAKTVKFKCPSSGTPNPTLRWLKNGKEFKPDHRIGGYKVRYATWSIIMDSVVPSDKGNYTCIVENEYGSINHTYQLDVVERSPHRPILQAGLPANKTVALGSNVEFMCKVYSDPQPHIQWLKHIEVNGSKIGPDNLPYVQILKTAGVNTTDKEMEVLHLRNVSFEDAGEYTCLAGNSIGLSHHSAWLTVLEAL[in this place human IgG1 Fc with changes]
# notes: Truncated ECD ending LEAL before the Fc; also called R1Mut4 fusion protein; HG1020129
# B4: FGFR1-IIIc-Fc fusion protein (Fc fusion)
# chain: RPSPTLPEQAQPWGAPVEVESFLVHPGDLLQLRCRLRDDVQSINWLRDGVQLAESNRTRITGEEVEVQDSVPADSGLYACVTSSPSGSDTTYFSVNVSDALPSSEDDDDDDDSSSEEKETDNTKPNPVAPYWTSPEKMEKKLHAVPAAKTVKFKCPSSGTPNPTLRWLKNGKEFKPDHRIGGYKVRYATWSIIMDSVVPSDKGNYTCIVENEYGSINHTYQLDVVERSPHRPILQAGLPANKTVALGSNVEFMCKVYSDPQPHIQWLKHIEVNGSKIGPDNLPYVQILKTAGVNTTDKEMEVLHLRNVSFEDAGEYTCLAGNSIGLSHHSAWLTVLEALEERPAVMTSPLYLEGS[in this place human IgG1 Fc with changes]
# notes: also called parental FGFR1-IIIc-Fc; FGFR-IIIc-Fc
# How the values were obtained:
# [1] = target: T1, FGF-18 (recombinant mouse) (mouse, UniProt O89101 28-207, limits assumed); experiment: SPR Biacore; fusion on Protein-A chip, FGF analyte, heparin; average of two
# T1 construct: Bought protein
# T1 sequence (looked up): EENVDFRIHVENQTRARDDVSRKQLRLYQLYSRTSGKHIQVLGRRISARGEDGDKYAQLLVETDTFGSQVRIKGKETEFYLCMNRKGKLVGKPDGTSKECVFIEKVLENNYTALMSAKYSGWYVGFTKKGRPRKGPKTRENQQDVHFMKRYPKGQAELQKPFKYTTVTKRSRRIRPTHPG
# Description: (§1) The specificity of FGF ligand binding to FGFR1-IIIc-Fc, R1Mut4, FGFR3-IIIc-Fc, and FGFR4-Fc was assessed using Biacore®T100 surface plasmon resonance (SPR) technology (Biacore; Piscataway, N.J.). FGFR1-IIIc-Fc, R1Mut4, and FGFR4-Fc fusion proteins were produced from CHO—S host cells as described in Examples 2, 4, and 5. […] Protein-A was covalently linked to a CM5 chip, according to manufacturer's instructions and then a FGFR fusion protein was bound to the chip by the interaction of the Fc domain with the Protein-A. The FGF ligands were placed in contact with the FGFR fusion protein, also according to manufacturer's instructions, in the presence of HBS-P buffer (Biacore; Piscataway, N.J.) supplemented with 50 ug/ml heparin (Sigma; St. Louis, Mo.).
# (§2) The binding of FGFR1-IIIc-Fc, R1Mut4, FGFR3-IIIc-Fc, and FGFR4-Fc to various FGF ligands was measured in real time.
# [2] = target: T2, recombinant human FGF-1 (human, UniProt P05230); experiment: as above
# T2 construct: Bought protein
# Description: as §1, §2
# [3] = target: T3, recombinant mouse FGF-8b (mouse, UniProt P37237-2 23-215); experiment: competition ELISA (FIG. 12), 293-6E-made fusion
# T3 sequence (looked up): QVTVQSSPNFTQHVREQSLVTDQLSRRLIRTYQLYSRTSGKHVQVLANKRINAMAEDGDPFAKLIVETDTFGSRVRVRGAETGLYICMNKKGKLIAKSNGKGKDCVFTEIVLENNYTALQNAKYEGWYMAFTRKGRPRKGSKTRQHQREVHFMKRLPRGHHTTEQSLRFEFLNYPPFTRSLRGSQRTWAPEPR
# [4] = target: FGF-9 (human, UniProt P31371); experiment: SPR Biacore; fusion on Protein-A chip, FGF analyte, heparin
# Description: as §1, §2
# [5] = target: T4, FGF-19 (human, UniProt O95750); experiment: as above
# T4 construct: Bought protein
# Description: as §1, §2
# [6] = target: T5, FGF-4 (human, UniProt P08620 54-206, limits assumed); experiment: as above
# T5 construct: Bought protein
# T5 sequence (looked up): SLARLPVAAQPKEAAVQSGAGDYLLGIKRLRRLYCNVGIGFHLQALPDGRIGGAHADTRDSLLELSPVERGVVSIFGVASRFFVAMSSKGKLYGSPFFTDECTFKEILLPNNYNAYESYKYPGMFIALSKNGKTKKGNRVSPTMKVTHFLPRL
# Description: as §1, §2
# [7] = target: T6, FGF-5 (human, UniProt P12034 23-268, limits assumed); experiment: as above
# T6 construct: Bought protein
# T6 sequence (looked up): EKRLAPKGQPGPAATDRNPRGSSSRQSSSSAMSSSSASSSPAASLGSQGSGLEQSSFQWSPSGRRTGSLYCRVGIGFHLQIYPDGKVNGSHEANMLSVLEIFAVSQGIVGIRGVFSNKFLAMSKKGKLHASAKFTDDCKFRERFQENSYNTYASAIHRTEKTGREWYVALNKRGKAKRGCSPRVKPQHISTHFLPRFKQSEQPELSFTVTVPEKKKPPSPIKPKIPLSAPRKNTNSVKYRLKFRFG
# Description: as §1, §2
# [8] = target: T7, FGF-20 (human, UniProt Q9NP95 1-211, limits assumed); experiment: as above
# T7 construct: Bought protein
# Description: as §1, §2
# [9] = target: T8, FGF-7 (human, UniProt P21781 32-194); experiment: as above
# T8 construct: Bought protein
# T8 sequence (looked up): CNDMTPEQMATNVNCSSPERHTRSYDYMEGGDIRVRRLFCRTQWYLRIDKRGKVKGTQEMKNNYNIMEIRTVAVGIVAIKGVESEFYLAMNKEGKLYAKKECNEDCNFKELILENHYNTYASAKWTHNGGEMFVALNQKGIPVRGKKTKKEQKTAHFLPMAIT
# Description: as §1, §2
# [10] = target: T3, recombinant mouse FGF-8b; experiment: competition ELISA, fusion pre-incubated with 200 ng/ml FGF-8b, plate FGFR4-Fc
# Description: Briefly, HI BIND half-wells were coated with FGFR4-Fc of CHO—S-origin at a concentration of 5 ug/ml in PBS in a volume of 25 ul per well for 1 hr at room temperature. The wells were blocked by adding 150 ul BLOTTO per well and incubating for 2 hr at room temperature. The coated half-well plates were then washed six times with PBS and 0.05% Tween-20 to remove unbound FGFR1-IIIc-Fc and BLOTTO.
# Similar competition ELISA experiments were conducted comparing the ability of the FGFR4-Fc fusion protein and the FGFR4-Fc deletion variants, produced in CHO—S host cells, to inhibit the binding of recombinant human FGF-2 (used at 200 ng/ml) and recombinant mouse FGF-8b (used at 200 ng/ml) (all from R&D Systems; Minneapolis, Minn.) to FGFR4-Fc derived from CHO—S cells and immobilized on an assay plate.
# [11] = target: T9, recombinant human FGF-2 (human, UniProt P09038 partial chain); experiment: SPR Biacore; fusion on Protein-A chip, FGF analyte, heparin
# T9 construct: Bought protein
# Description: as §1, §2
# [12] = target: T2, recombinant human FGF-1; experiment: as above
# Description: as §1, §2
# [13] = target: T3, recombinant mouse FGF-8b; experiment: competition ELISA (FIG. 9), DG44-made fusion, plate FGFR1-IIIc-Fc
# Description: Similar competition ELISA experiments were conducted comparing the ability of the FGFR1-IIIc-Fc fusion protein and R1Mut4 fusion protein, both produced in DG44 host cells, to inhibit the binding of recombinant human FGF-1 (at a concentration of 60 ng/ml), recombinant human FGF-2 (a concentration of at 200 ng/ml), and recombinant mouse FGF-8b (a concentration of at 200 ng/ml) (all from R&D Systems; Minneapolis, Minn.) to FGFR1-IIIc-Fc derived from 293 cells and immobilized on an assay plate.
# [14] = target: T9, recombinant human FGF-2; experiment: cell-based or functional assay
# [15] = target: T9, recombinant human FGF-2; experiment: competition ELISA, 293-6E-made fusion pre-incubated with 200 ng/ml FGF-2, plate FGFR1-IIIc-Fc
# Description: The wells were blocked by adding 150 ul BLOTTO per well and incubating for 2 hr at room temperature. The coated half-well plates were then washed six times with PBS and 0.05% Tween-20 to remove unbound FGFR1-IIIc-Fc and BLOTTO.
# About 40 ul of the above fusion proteins pre-incubated with FGF-2 were then added to the washed half-well plates coated with FGFR1-IIIc-Fc and incubated for 30 min at 37° C. with shaking. After incubation, the plates were washed as before six times with PBS and 0.05% Tween-20 to remove any unbound FGF-2. After washing, about 2 ug/ml of anti-human FGF-2 polyclonal biotinylated antibody (from R&D Systems) in 1x BLOTTO was added to each well of the plate, which was then incubated for 30 min at 37° C. with shaking, followed by washing as before to remove any unbound anti-FGF-2 antibody. The bound anti-FGF-2 antibody was detected using a streptavidin-HRP linker provided in the ABC kit (Vector Laboratories, Burlingame, Calif.) according to the manufacturer's protocol. After washing as before, reconstituted OPD solution (Sigma; St. Louis, Mo.) was added. The detection reaction was developed for 10 to 20 min at room temperature followed by a reading of absorbance at 450 nm.
# T7 sequence (Q9NP95 whole entry): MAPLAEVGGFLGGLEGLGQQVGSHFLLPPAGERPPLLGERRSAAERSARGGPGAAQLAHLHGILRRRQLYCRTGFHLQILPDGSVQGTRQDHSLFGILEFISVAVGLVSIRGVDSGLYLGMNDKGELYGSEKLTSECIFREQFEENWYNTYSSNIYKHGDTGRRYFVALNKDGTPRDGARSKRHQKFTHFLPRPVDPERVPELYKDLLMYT
# T2 sequence (P05230 16-155 limits assumed): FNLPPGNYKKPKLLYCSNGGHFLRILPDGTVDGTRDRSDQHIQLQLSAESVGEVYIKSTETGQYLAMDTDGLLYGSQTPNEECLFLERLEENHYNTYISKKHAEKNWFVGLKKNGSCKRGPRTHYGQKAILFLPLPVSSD
# T4 sequence (O95750 25-216 limits assumed): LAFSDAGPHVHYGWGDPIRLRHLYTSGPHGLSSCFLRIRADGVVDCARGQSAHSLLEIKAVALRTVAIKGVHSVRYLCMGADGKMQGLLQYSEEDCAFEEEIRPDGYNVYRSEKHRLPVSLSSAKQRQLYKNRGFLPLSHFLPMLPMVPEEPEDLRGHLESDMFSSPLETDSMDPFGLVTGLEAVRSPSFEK
# T9 sequence (P09038 143-288 limits assumed): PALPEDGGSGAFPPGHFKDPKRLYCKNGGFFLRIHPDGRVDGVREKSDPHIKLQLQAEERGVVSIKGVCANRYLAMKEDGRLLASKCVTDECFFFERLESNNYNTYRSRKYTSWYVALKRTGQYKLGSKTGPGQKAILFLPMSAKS
Binder,Kd [1] [nM],kon [1] [M⁻¹ s⁻¹],Kd [2] [nM],kon [2] [M⁻¹ s⁻¹],Kd [4] [nM],kon [4] [M⁻¹ s⁻¹],Kd [5] [nM],Kd [6] [nM],kon [6] [M⁻¹ s⁻¹],Kd [7] [nM],Kd [8] [nM],kon [8] [M⁻¹ s⁻¹],Kd [11] [nM],kon [11] [M⁻¹ s⁻¹],binding result [13],"inhibition of FGF-2 activated Erk phosphorylation (phospho-Erk ELISA), EC50, 293-6E protein [14] [µg/mL]",kon [7] [M⁻¹ s⁻¹],further results
B1,0.035,5.16e+06,0.126,2.83e+06,0.537,776000,7870,1.91,808000,9.7,2.17,185000,–,–,–,–,–,binding result [3]: binds; Kd [9]: 148 nM; kon [9]: 319000 M⁻¹ s⁻¹
B2,–,–,–,–,–,–,–,–,–,–,–,–,16.2,41600,–,–,–,EC50 [10]: ~0.631 µg/mL; Kd [12]: 3.45 nM; kon [12]: 168000 M⁻¹ s⁻¹
B3,0.275,1.06e+06,0.0507,3.46e+06,0.919,566000,–,0.214,1.06e+06,2.95,0.785,242000,0.438,412000,binds,0.29,371000,–
B4,0.418,1.11e+06,–,–,1.12,474000,7870,0.667,715000,4.58,1.57,162000,0.617,375000,binds,0.18,171000,"inhibition of FGF-2 activated Erk phosphorylation (phospho-Erk ELISA, L6 cells transfected with FGFR1-IIIc), EC50, 293 cells-derived protein [14]: 0.23 µg/mL; inhibition of FGF-2 activated Erk phosphorylation (phospho-Erk ELISA, L6 cells transfected with FGFR1-IIIc), EC50, CHO cells-derived protein [14]: 0.29 µg/mL; kon [5]: 56300 M⁻¹ s⁻¹; EC50 [15]: ~0.24 µg/mL"
